Experimental data taken from the supplement of paper PMC3334620.
The full ranking holds about 33,000 sequences; the median of “E-score (-0.5 to 0.5)” is about -0.054, and the highest 2% start at about 0.35. This is one part of the list.

molecular target: T1, Stb5 (UniProt P38699); assay: PBM E-score (8-mer binding enrichment) (E-score (-0.5 to 0.5)); higher = stronger / more preferred TF binding; most listed sequences are background and not binding sites; settings: protein concentration: 200 nM; construct: GST-full length
T1 sequence: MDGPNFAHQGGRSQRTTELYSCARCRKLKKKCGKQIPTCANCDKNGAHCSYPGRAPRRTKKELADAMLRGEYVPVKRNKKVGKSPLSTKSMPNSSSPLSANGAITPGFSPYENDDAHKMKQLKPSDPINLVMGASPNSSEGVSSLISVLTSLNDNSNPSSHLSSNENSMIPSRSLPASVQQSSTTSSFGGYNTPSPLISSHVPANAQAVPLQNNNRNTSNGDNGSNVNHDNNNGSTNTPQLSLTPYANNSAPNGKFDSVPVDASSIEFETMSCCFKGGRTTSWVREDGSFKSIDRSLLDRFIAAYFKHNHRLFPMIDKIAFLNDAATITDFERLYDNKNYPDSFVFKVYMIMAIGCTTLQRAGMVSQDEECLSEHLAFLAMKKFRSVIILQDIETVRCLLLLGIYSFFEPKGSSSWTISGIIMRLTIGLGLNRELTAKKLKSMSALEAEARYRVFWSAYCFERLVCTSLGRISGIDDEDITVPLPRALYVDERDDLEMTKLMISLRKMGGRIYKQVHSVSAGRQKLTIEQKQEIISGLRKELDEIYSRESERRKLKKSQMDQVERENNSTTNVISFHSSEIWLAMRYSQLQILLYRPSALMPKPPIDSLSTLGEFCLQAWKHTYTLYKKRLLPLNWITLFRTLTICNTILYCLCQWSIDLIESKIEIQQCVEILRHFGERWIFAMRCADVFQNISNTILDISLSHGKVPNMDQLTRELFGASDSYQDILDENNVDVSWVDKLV
Procedure, shortened: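 Using PURExpress in vitro transcription/translation, GST-tagged yeast transcription factors were made in full-length or DNA-binding-domain form. These were applied at about 100-200 nM to double-stranded universal all-10-mer Agilent arrays, and bound protein was detected with fluorescent anti-GST. Scans were normalised with masliner before the Universal PBM Analysis Suite assigned E-scores to ungapped eight-base words pooled with their reverse complements.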

Row | Sequence | PBM E-score
1 | CCTTAACC | -0.128
2 | CCAGAGCA | -0.109
3 | ACGATTAC | -0.161
4 | GATTAGGC | -0.0563
5 | CATGGCCA | -0.147
6 | CAGTACCA | -0.218
7 | AGATCCTG | -0.271
8 | CAGTGGAA | -0.144
9 | CCGCATCA | 0.155
10 | GTTACGCA | -0.185
11 | ATGACACA | -0.0801
12 | CTTCCTCA | -0.135
13 | AATTGATA | -0.154
14 | CCCCTCTC | -0.226
15 | ATGATCGC | 0.0541
16 | AGCGGGAA | 0.357
17 | ATACTCCA | -0.199
18 | ACCCTGTG | -0.19
19 | CCCGGTTA | 0.313
20 | GCAGCCAC | -0.00795
21 | CGAACTCA | -0.12
22 | AAACCAGT | -0.275
23 | CGGCCGCA | 0.235
24 | CAATCTCA | -0.135
25 | GCGGTTCC | 0.168

Row | Sequence | PBM E-score
26 | AAACGCGT | -0.172
27 | AACTCCAT | 0.144
28 | GTGATTAA | 0.132
29 | GATTCTAC | 0.0624
30 | ACGGAATC | 0.0819
31 | AAAAGTCG | 0.109
32 | TCGAGAGA | -0.156
33 | GCACGACA | -0.0307
34 | AACTGGCG | -0.0206
35 | CTACCTAG | -0.0939
36 | AAGGTAAT | 0.0485
37 | CGAGGGAC | -0.0978
38 | GATGTCGA | -0.144
39 | CTAAGCCC | 0.324
40 | TAGGAGCA | -0.24
41 | AATATTTC | 0.0341
42 | AGTTTGCG | -0.0438
43 | CGATCGTA | 0.0283
44 | AAGAATGG | -0.0899
45 | CTGCCCTA | -0.218
46 | CGGGGTGC | 0.215
47 | GAAGAAGA | -0.136
48 | GAGATGTA | -0.0314
49 | CTGCTGTA | -0.103
50 | CCTGCTTA | -0.137

Row | Sequence | PBM E-score
51 | AAACTGCT | -0.227
52 | CTTGTTAA | 0.101
53 | AACTGCCT | -0.288
54 | CGTACGAA | -0.0979
55 | ATCCCCTC | -0.0806
56 | AAACTGTC | -0.213
57 | ACGAACTA | -0.222
58 | CTCTTCAA | -0.139
59 | AAACTGAC | -0.0692
60 | GATTTTCC | 0.0954
61 | ACTAATAG | -0.0202
62 | ATGGCGAC | -0.141
63 | GTACTGTA | -0.123
64 | TCGGTCCA | 0.108
65 | AGCGAAGA | -0.143
66 | AAGCTCCG | 0.429
67 | CCCGTTAC | 0.22
68 | TCGTCAAA | -0.0156
69 | AAACACAG | -0.0631
70 | CTACGGTA | 0.0875
71 | AGAGTGAT | -0.258
72 | GTTAATTA | 0.0587
73 | CTTTAACA | 0.251
74 | AGCCGGGA | 0.091
75 | ACGGTTCT | 0.108

Row | Sequence | PBM E-score
76 | ATGTCAGC | -0.057
77 | ATGTTCTC | -0.11
78 | CTACTTTC | -0.0867
79 | AACGGACG | 0.224
80 | CGCGGCGA | 0.292
81 | AGTTATGA | 0.0258
82 | ATCGAGTA | -0.218
83 | TCCACTCA | -0.0942
84 | CTTTGTGC | -0.168
85 | ATACCCTC | 0.0676
86 | CCGCATTA | 0.243
87 | AAAATAAA | -0.0256
88 | CGGTCGAC | 0.185
89 | GTGTGCGA | -0.021
90 | GTTGAGGA | -0.203
91 | TGATGCCA | -0.269
92 | CGGTTGTA | 0.309
93 | ATTCAAAA | -0.0949
94 | CGGCGAAC | 0.233
95 | CTCGCATA | -0.173
96 | ACTAGTCA | -0.164
97 | AAGGGTTG | -0.236
98 | CCGGCCCA | 0.153
99 | CTACGAAC | -0.118
100 | AAGTTACC | 0.104

Row | Sequence | PBM E-score
101 | GTGCCAAA | -0.0778
102 | CCCGATAC | 0.285
103 | AAATATCA | -0.0472
104 | ATACAGAT | -0.219
105 | TCTGAACA | -0.141
106 | CTATTAGA | -0.136
107 | CCAATAGG | -0.13
108 | ATGGTCTA | -0.23
109 | GAAACGTC | -0.0353
110 | CGACCGGA | 0.285
111 | GTGGAAGA | -0.047
112 | TATTGAGA | -0.0554
113 | ACCGGCGG | 0.403
114 | CCTTTAAG | -0.0922
115 | ACTGGCGG | 0.315
116 | GTAAGTCA | -0.206
117 | CTAGGTGC | -0.154
118 | ACAGAGAA | -0.145
119 | CGGCCGAC | 0.205
120 | CGAAAAAG | 0.0805
121 | ACGCCCGA | 0.208
122 | ACTTCCCA | -0.166
123 | AAAATTTA | -0.072
124 | GCATCAAC | 0.0162
125 | CCTGTAAG | -0.299

Row | Sequence | PBM E-score
126 | CCGGATAG | 0.116
127 | ACCAAAAG | -0.113
128 | AATGCAGC | -0.219
129 | GGGGCATA | 0.083
130 | CGCGGTAC | 0.34
131 | TACATCCA | -0.183
132 | TCATAAGA | 0.0982
133 | ACCGAGTG | 0.146
134 | TAATTTCA | -0.123
135 | CCTGGGCC | 2e-05
136 | AGGCTGCG | 0.0438
137 | CCAGTAAA | -0.0753
138 | GACTCTAA | -0.0912
139 | AGTATTCA | -0.0558
140 | TCATCCCA | -0.235
141 | ACCCTTCG | -0.0383
142 | ACTTCAAA | -0.118
143 | CAAAGTAA | -0.048
144 | AATTTGGA | -0.246
145 | ACCAATGC | 0.0645
146 | AGAATTGG | -0.0192
147 | CCGGAAAA | 0.178
148 | CGATATAA | 0.0105
149 | CCATCCGG | 0.111
150 | CTACACAG | -0.206

Row | Sequence | PBM E-score
151 | GTAGGCAC | 0.00995
152 | ACTTTCGG | 0.151
153 | AACGATTC | -0.141
154 | CAAGTCGG | 0.227
155 | AGTACAGG | 0.0943
156 | GCGAAAGC | -0.214
157 | ATAATGTC | 0.298
158 | AGCATTTG | -0.103
159 | AAAGAAGG | -0.116
160 | CCGTAACA | 0.145
161 | CGGCTGGC | -0.154
162 | ACACGACG | -0.105
163 | ATGTAAGA | -0.01
164 | ATTTGTCA | -0.113
165 | ACTTCCAA | -0.258
166 | ATGCACAT | -0.152
167 | CCGGGGAG | 0.188
168 | ACCAGGGA | -0.324
169 | ACTAGAAT | -0.0271
170 | AACTATGT | -0.125
171 | AATCAAGT | -0.0996
172 | CAAACCGC | 0.126
